Results taken from the supplement of paper PMC3334620.
Over roughly 33,000 sequences, “E-score (-0.5 to 0.5)” has its median near -0.021; the highest 2% begin near 0.32. The list shows a part of the results.

molecular target: T1, Zap1 (UniProt P47043); test: PBM E-score (8-mer binding enrichment) (E-score (-0.5 to 0.5)); higher = stronger / more preferred TF binding; most listed sequences are background and not binding sites; conditions: protein concentration: 200 nM; construct: GST-full length
T1 sequence: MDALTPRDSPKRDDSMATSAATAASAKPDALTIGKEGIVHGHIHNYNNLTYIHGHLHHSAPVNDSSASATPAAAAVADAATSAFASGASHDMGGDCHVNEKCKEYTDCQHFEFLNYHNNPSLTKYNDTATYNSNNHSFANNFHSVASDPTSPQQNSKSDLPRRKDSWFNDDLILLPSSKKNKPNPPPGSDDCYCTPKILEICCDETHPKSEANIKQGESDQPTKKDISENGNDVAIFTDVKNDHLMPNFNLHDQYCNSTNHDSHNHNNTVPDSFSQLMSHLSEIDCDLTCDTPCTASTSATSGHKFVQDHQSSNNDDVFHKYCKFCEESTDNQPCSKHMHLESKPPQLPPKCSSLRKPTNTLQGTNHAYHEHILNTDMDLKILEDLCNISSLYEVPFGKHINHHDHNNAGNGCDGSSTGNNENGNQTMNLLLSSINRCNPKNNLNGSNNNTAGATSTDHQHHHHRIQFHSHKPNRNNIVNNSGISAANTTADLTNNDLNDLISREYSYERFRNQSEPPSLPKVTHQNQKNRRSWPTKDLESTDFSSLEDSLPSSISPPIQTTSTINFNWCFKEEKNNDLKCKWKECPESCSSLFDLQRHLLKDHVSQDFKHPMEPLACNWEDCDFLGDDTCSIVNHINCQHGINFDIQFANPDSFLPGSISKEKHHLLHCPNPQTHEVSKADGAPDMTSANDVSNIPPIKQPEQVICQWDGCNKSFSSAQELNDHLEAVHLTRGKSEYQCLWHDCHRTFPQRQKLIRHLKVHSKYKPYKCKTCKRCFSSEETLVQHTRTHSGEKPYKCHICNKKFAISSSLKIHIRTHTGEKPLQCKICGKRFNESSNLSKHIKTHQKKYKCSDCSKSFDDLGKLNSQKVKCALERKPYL
Description: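 Universal 'all 10-mer' protein binding microarrays (Agilent AMADID 015681) probed with GST-tagged S. cerevisiae TFs (full-length or DBD) made by in vitro transcription/translation (PURExpress), about 100-200 nM. Bound TF was detected with fluorescent anti-GST. Each ungapped 8-mer (which stands for itself and its reverse complement) is scored by the PBM enrichment score (E-score), a modified Wilcoxon-Mann-Whitney statistic from -0.5 to +0.5, computed with the Universal PBM Analysis Suite. Scale: above 0.35 generally sequence-specific binding.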

| Sequence | PBM E-score |
| --- | --- |
| GGGTGAGA | -0.0816 |
| ACCATTTC | 0.126 |
| CCCGTAAG | 0.259 |
| AACCCATC | 0.248 |
| ATGGACAT | 0.108 |
| GTAGTGTA | 0.0188 |
| CCTCTTTA | -0.0666 |
| ATTATTGG | 0.049 |
| CCTAGATC | -0.211 |
| GCTAAAGC | -0.287 |
| ACTCTGCA | 0.0815 |
| GCGAGCCA | -0.109 |
| CAGATCGG | -0.238 |
| CGTACAGC | -0.17 |
| ATCACCTG | 0.073 |
| GACCCAAA | 0.299 |
| TAAGTGAA | 0.0879 |
| CGCCACCC | 0.0637 |
| GGCAAGAC | -0.161 |
| GTTATTCA | 0.238 |
| ATGCACTA | -0.0376 |
| GCCCTCCC | -0.27 |
| AGCGATAT | 0.0755 |
| CAAAATAC | 0.175 |
| CCAATTGA | -0.032 |

| Sequence | PBM E-score |
| --- | --- |
| GATCGACC | 0.0168 |
| ACCCGACC | 0.233 |
| TAGGGCAA | 0.0414 |
| CAGTCATA | 0.00081 |
| CCGCTTGA | -0.0656 |
| AACAGGCG | -0.32 |
| GCGTGGCA | -0.238 |
| ATAATGTA | -0.00663 |
| CAGTGTTA | 0.116 |
| CAGCTATG | -0.151 |
| CATGGACA | 0.0186 |
| CATGTCCA | 0.0896 |
| GTCGCGCA | -0.0617 |
| CTACCCAA | 0.265 |
| CTACAAAG | 0.233 |
| AGTGACAG | 0.00986 |
| GATCAGAA | -0.106 |
| ATACCCCG | 0.175 |
| CATTCAGC | -0.131 |
| AAGGGCAA | -0.13 |
| GAAGGACA | -0.0101 |
| ACAGCGTA | -0.0395 |
| ACTCTACG | -0.188 |
| GGCCTGAA | -0.22 |
| ACTTGTCG | -0.0781 |

| Sequence | PBM E-score |
| --- | --- |
| CAATCAAC | 0.091 |
| GGAAACCA | 0.0255 |
| AAATGTAA | 0.106 |
| AGTTTCTC | -0.19 |
| AATTAGCT | 0.0533 |
| GCCCCCCC | -0.27 |
| CTGCGGAA | -0.109 |
| AGCGCGAA | 0.0923 |
| GATATTCA | -0.112 |
| TCCTTGAA | 0.158 |
| AGGGTTCG | 0.0919 |
| TATTGACA | -0.0592 |
| CCAGGTCC | 0.0708 |
| ACGGATAT | 0.187 |
| CTCTCACC | 0.0392 |
| CGACATCG | -0.203 |
| GTTATCTA | 0.171 |
| ACAGCCCT | -0.154 |
| AACACCGT | -0.0994 |
| GACCAGCA | -0.00619 |
| CCCTCTTA | 0.206 |
| AAGGCTTG | -0.209 |
| CAACGTAC | -0.00853 |
| CGATAGCG | -0.123 |
| ACTAAATA | 0.229 |

| Sequence | PBM E-score |
| --- | --- |
| CCAGCGGA | -0.21 |
| ACGCATGC | 0.0223 |
| GTCGCGGA | 0.089 |
| CTATAATA | 0.144 |
| AGGGGTAT | 0.258 |
| CAAGCATA | -0.0322 |
| CACATCCA | -0.0646 |
| GCATAGGC | -0.325 |
| AACATAGC | -0.116 |
| ACAACACT | 0.21 |
| CCAAATAC | 0.0363 |
| ACGCCGTA | -0.166 |
| GGATGTTA | 0.0507 |
| CTTGCAGA | -0.123 |
| CTCGGAAA | 0.0791 |
| ATACAGAA | 0.0186 |
| CATGGCGG | -0.129 |
| CCGTGGCG | -0.134 |
| CCTTAAAG | 0.276 |
| AGCTGGTG | -0.107 |
| CATTTAGG | -0.0899 |
| GCTTCGGA | -0.106 |
| CAAGTTCA | -0.0629 |
| GATTATGA | 0.0655 |
| CTGCAGAA | -0.103 |

| Sequence | PBM E-score |
| --- | --- |
| CGCGGCTC | 0.0661 |
| CCGTTCGA | 0.0486 |
| CAGATGCA | -0.312 |
| AACCACGA | 0.242 |
| GAATTGTA | 0.0899 |
| CTTGCAAA | -0.0664 |
| AGAAACAA | 0.248 |
| ACATTAAG | 0.209 |
| CCCGCCGA | -0.0979 |
| ACCGGTTA | 0.372 |
| GTTGGGTA | 0.237 |
| CCCAAGGC | -0.0489 |
| GGAGGCTA | -0.136 |
| ATAATCGC | 0.189 |
| GTGTTATA | 0.123 |
| CCAAAAAG | 0.248 |
| ACCACGGG | 0.0669 |
| AATTTTAC | 0.0624 |
| ACCTTTTA | 0.411 |
| CCGCCGCG | 0.00453 |
| ATCCTTTG | 0.161 |
| GATCGGCC | -0.175 |
| CACTTTTC | 0.092 |
| GTATGCAC | -0.0756 |
| AAAATCCT | 0.0229 |

| Sequence | PBM E-score |
| --- | --- |
| ATGCCCGG | -0.107 |
| CCTGGATA | -0.083 |
| ACCAGCTC | -0.0583 |
| CGTCAACG | -0.197 |
| TAAGTTAA | 0.00685 |
| ACATCGCG | -0.0245 |
| GATTGTGC | -0.0973 |
| TCGGTAAA | -0.0188 |
| CCTGCCGC | -0.196 |
| AGATACTC | -0.0853 |
| ACTGACGA | -0.0465 |
| AGTCTCCG | 0.0457 |
| GCTGCCAC | -0.188 |
| AAGGACAT | 0.131 |
| GAAAAATA | 0.286 |
| GAGTACTC | -0.11 |
| GCAGTGTA | -0.063 |
| AGGAGCCA | -0.133 |
| AACACTCA | 0.0212 |
| TGGTGGAA | -0.106 |
| ACAGGCCG | -0.291 |
| GTAAAAGA | 0.0206 |
| ACCAAAGT | 0.0879 |
| CGAAGCAG | -0.165 |
| AACCAGTG | -0.0657 |

| Sequence | PBM E-score |
| --- | --- |
| ACAGCTGG | -0.033 |
| TTCCTCAA | -0.012 |
| GAAAGCGC | -0.115 |
| GAACCTTC | 0.154 |
| CCTAGACG | -0.243 |
| CTAATTTA | 0.0925 |
| CACTGCAG | -0.0344 |
| ATACCACG | 0.0645 |
| AGATTCGC | -0.176 |
| ATGGCGTG | -0.0653 |
| CGTGTACA | 0.0312 |
| CACTTTAA | 0.117 |
| GACCTGCC | -0.0362 |
| CGGTAAAA | 0.211 |
| CCTTCCTC | -0.267 |
| CACTAACG | -0.178 |
| GCGTGACC | 0.326 |
| GAATATTC | -0.035 |
| CACAGAGA | -0.0512 |
| AAGCCCAA | -0.0803 |
| CAATCTAG | 0.0755 |
| CAACCGGA | 0.111 |
